Data on 91 molecules can be found in PubChem BioAssay AID463173 (ICCB-Longwood Screening Facility, Harvard Medical School, 2010).

Each structure is given as a SMILES string. The whole screen tested about 52,000 compounds, of which about 4,300 (8.3%) were called active. No stated cut-off is given here; in the data, active means survival mostly below about 52% (no sharp cut-off); inactive means mostly above about 56%. The list shows a part of the results.

In this assay the test system is DeltatarO mutant. The assay is described as follows: S. aureus survival, RN4220 and DeltatarO strains – OD600, teichoic acid synthesis inhibitors, primary screen (AID 463173). The conditions noted are these: S. aureus RN4220 wild type/DeltatarO growth, OD600, 18 h, stronger effect = lower value, screened at 18.75 µg/mL (by protocol).
Consider `COc1ccc(NC(=O)Cn2nnnc2-c2ccccc2F)c(C)c1`, for which the survival is inactive: 74%.
For `CCCNC(=O)C1CCC(Cn2c(=O)c3sccc3n(CC(=O)N(CC)CC)c2=O)CC1` (stereo unspecified) the value was inactive: 94%; for `COc1cccc(/C=N/NC(=O)c2ccccc2O)c1`, inactive: 92%.
For `COC(=O)c1ccc(NC(=O)CC2C(=O)N(c3cccc(F)c3)C(=O)N2CC(C)C)cc1` (stereo unspecified) the value was inactive: 74%.
In the case of `CCCN(CCC)CCNC(=O)CS(=O)Cc1nc(-c2ccc(OC)c(OC)c2)oc1C` (stereo unspecified) it was inactive: 100%; in that of `Cc1ccc(-n2nc(C(=O)N3CCCCC3)c(=O)n(C)c2=O)cc1`, active: 52%.
As to `CCOc1ccc(C2c3[nH]c4ccccc4c3CCN2C(=O)CSc2ccccc2)cc1` (stereo unspecified), the survival was inactive: 129%.
For `CN(C(=O)C1CC1)c1nnc(-c2ccc(F)cc2)s1`, the survival was inactive: 95%.
For `CCOC(=O)c1cc(NC(=O)c2ccc(C)cc2)c(=O)n2c1oc1ccccc12` the value was inactive: 52%; for `CCOc1cc(CNCCSc2nnnn2C)ccc1OCc1ccc(Cl)cc1Cl`, active: -6%; for `Cc1ccc(NC(=O)CN2C(=O)COc3ccc(S(=O)(=O)N4CCCCC4)cc32)cc1Cl`, inactive: 82%.
For `COCCCNC(=O)Cn1c(=O)n(-c2ccccc2)c(=O)c2c1c1cc(OC)ccc1n2C` the value was inactive: 61%; for `COc1ccc(CN2C(=O)N(c3cccc(C)c3)C(=O)C2CC(=O)Nc2ccc(F)cc2)cc1OC` (stereo unspecified), inactive: 67%.
For `CC(=O)Nc1ccc(S(=O)(=O)N2CCC(C)CC2)cc1` the value was inactive: 96%; for `CN(Cc1ccccc1)C(=O)C(=O)Nc1ccc2nc3n(c(=O)c2c1)CCCCC3`, inactive: 82%.
For `COc1cccc(C(=O)Nc2nc3c(s2)CCCC3)c1`, the survival is inactive: 87%.
As to `COc1ccc(-n2c(=O)c3ccc(C(=O)NCc4ccc(C)cc4)cc3n(CC(=O)Nc3cccc(F)c3)c2=O)cc1`, the survival is inactive: 79%.
Regarding `Cc1ccc(CNC(=O)c2cc3cc(C)ccc3n2C)cc1`, the survival is inactive: 62%.
In the case of `CNc1ccc(-c2nc(-c3ccccn3)no2)cc1[N+](=O)[O-]` it was inactive: 52%; in that of `Cc1cc(NC(=O)c2ccc(-c3ccc(Br)cc3)o2)cc(-c2nc3ncccc3o2)c1O`, inactive: 73%; in that of `Cc1ccc2nc(Cl)c3cc(C(=O)NCCCN4CCC(C)CC4)sc3c2c1`, inactive: 125%.
In the case of `O=C(Nc1ccccc1)c1ccco1` it was inactive: 77%; in that of `Cc1ccc(C)c(S(=O)(=O)c2nnn3c2nc(NCc2cccs2)c2sccc23)c1`, inactive: 46%; in that of `COc1ccc(NC(=O)Cc2csc(COc3cccc(C)c3)n2)cc1OC`, inactive: 72%.
For `COc1ccc(N2CC(NC(=O)c3ccc4c(c3)OCO4)CC2=O)cc1OC` (stereo unspecified) the value was inactive: 71%; for `CCc1ccc(-n2c(SCC(=O)NC(C)CC)nc3n[nH]c(C)c3c2=N)cc1` (stereo unspecified), inactive: 122%.
In the case of `COc1ccc2c(c1)c1c(c(=O)n(-c3ccccc3)c(=O)n1CC(=O)Nc1ccc(F)cc1)n2C`, the survival is inactive: 84%.
In the case of `Fc1cccc(Cl)c1CNc1n[nH]c(-c2ccco2)n1` it was inactive: 76%; in that of `Cc1ccc(Cl)cc1N1CCN(C(=O)c2cccn2-c2nnc(N3CCCCC3)s2)CC1`, inactive: 69%.
For `Cc1csc(NC(=O)/C=C\C(=O)O)n1` the value was inactive: 100%; for `CC1C(=O)Nc2ccc(S(=O)(=O)Nc3ccccc3Br)cc2NC1=O` (stereo unspecified), inactive: 90%.
For `CC(C)CCNC(=O)c1ccc(Cn2c(SCC(=O)NC(C)C)nc3ccccc3c2=O)cc1` the value was inactive: 144%; for `CCn1c(=O)c2c(n3c(=S)[nH]nc13)-c1ccccc1CC21CCCCC1`, inactive: 59%.
Turning to `CCCSC1=NC2(CCN(C(=O)NC3CCCCC3)CC2)N=C1c1ccccc1`, the survival was inactive: 85%.
On to `NC(=S)NN1N=C(c2ccccc2)CC1=O`, for which the survival is inactive: 89%.
Turning to `CC(C)c1nnc(NC(=O)c2nc(SCc3ccc(F)cc3)ncc2Cl)s1`, the survival was active: 24%.
For `CCCSc1ncc(Cl)c(C(=O)Nc2sc3c(c2C(=O)NCC)CCCC3)n1`, the survival is active: 45%.
For `COc1ccc(CNC(=O)Cn2nnc(-c3ccccc3F)n2)cc1` the value was inactive: 67%.
In the case of `Cc1ccc(-c2nc(S(=O)(=O)c3ccc(Cl)cc3)c(N3CCCCC3)o2)cc1` it was active: 11%; in that of `CCCCN(C)CC(O)Cn1cc(/C=C/C(=O)c2ccc(OC)c(OC)c2)c2ccccc21` (stereo unspecified), inactive: 67%.
Take `CCCn1ccc2c(OCC(=O)NCc3ccc(F)cc3)cccc2c1=O`: the survival was inactive: 55%.
Turning to `CCc1cc2c(cc3c(=O)n(CC(=O)N4CCCCC4)nc(CC)n32)s1`, the survival was inactive: 77%.
Regarding `COc1ccc(Cl)cc1C(=O)Nc1ccc2oc(-c3ccc(C(C)(C)C)cc3)nc2c1`, the survival was inactive: 82%.
For `C#CCOc1nc(OCC#C)nc(N(c2ccccc2)c2ccccc2)n1` the value was inactive: 48%; for `CCN1CCN(C(=O)c2ccc3c(c2)N(Cc2ccccc2)C(=O)c2ccccc2S3=O)CC1` (stereo unspecified), inactive: 104%.
In the case of `CN1C(=O)SC(Nc2ccccc2)C1=O` (stereo unspecified) it was inactive: 65%; in that of `CN(C)c1ccc(-c2nnc(-c3ccc(S(=O)(=O)C(F)F)cc3)o2)cc1`, inactive: 61%.
For `CCOc1ccc(CNCc2c(C(=O)O)c(C)n(Cc3ccc(F)cc3Cl)c2C)cc1` the value was inactive: 118%.
On to `COc1ccc(OC)c(-c2nc(C(N)=O)c3c(n2)n(-c2ccc4c(c2)OCO4)c(=O)n3C)c1`, for which the survival was inactive: 84%.
In the case of `Cc1nn(CCCC(=O)NCc2cccc(F)c2)c(=O)c2nn(-c3ccccc3)c(C)c12` it was inactive: 83%.
Regarding `CCOC(=O)c1c(S(=O)(=O)NCC(=O)Nc2ccc(Cl)c(C(F)(F)F)c2)c(C)n(C)c1C`, the survival is inactive: 62%.
As for `CCCCc1nn2c(=O)cc(COC(=O)c3cccc(NC(=O)c4cccc(C)c4)c3)nc2s1`, the survival was inactive: 89%.
In the case of `Cc1ccc2[nH]c(=O)c(CN(Cc3cccnc3)S(=O)(=O)c3ccccc3)cc2c1` it was inactive: 97%.
In the case of `CC(C)(C)Sc1ccc(SC#N)s1` it was active: 1%; in that of `COc1cccc(NC(=O)CN(Cc2ccccc2)S(=O)(=O)c2ccc3nc(C)sc3c2)c1`, inactive: 112%; in that of `CSc1ncc(Cl)c(C(=O)Nc2nc3ccc(F)cc3s2)n1`, inactive: 98%.
For `CCCCNC(=O)CN1C(=O)CSc2ccc(S(=O)(=O)N3CCC(C)CC3)cc21` the value was inactive: 82%; for `Cc1ccc(NC(=O)CN(C)S(=O)(=O)c2ccc3c(c2)CCC(=O)N3)c(C)c1`, inactive: 85%; for `Cc1ccc(CN2CCCn3nc(C(=O)NCc4ccccc4Cl)cc3C2=O)cc1`, inactive: 69%.
`COc1ccccc1-c1noc(-c2ccc(N(C)Cc3ccccc3)c([N+](=O)[O-])c2)n1`: the survival was active: 36%.
For `Cc1ccc(NC(=O)Cn2nc(-c3ccc(F)cc3)c3cnc4ccc(C)cc4c32)cc1` the value was inactive: 124%; for `COc1ccccc1C(=O)c1c(N)c(-c2nc(-c3ccccc3)cs2)c2ccccn12`, inactive: 110%; for `CCCCN(CC)C(=O)CCn1c(=O)c2cccn2c2cccnc21`, inactive: 70%.
In the case of `CC(=O)Nc1ccc(C)cc1-c1nc2ccccc2n(CC(=O)c2ccc(Cl)cc2)c1=O` it was inactive: 82%; in that of `COC(=O)c1cc2oc3ccccc3c2n1CC(=O)Nc1cc(OC)cc(OC)c1`, inactive: 61%; in that of `CC(C)(C)c1nn(-c2ccccc2)c2[nH]c(=O)c(CNc3ccc4c(c3)OCO4)cc12`, inactive: 86%.
For `CC(=O)N(Cc1cccnc1)c1nc2ccc(F)cc2s1` the value was inactive: 81%; for `COc1cccc2cc(-c3cn4c(n3)sc3cc(F)ccc34)c(=O)oc12`, inactive: 60%; for `CCOc1ccc(N2CC(C#N)=C3c4cc(OC)c(OC)cc4CCN3C2)cc1`, inactive: 101%.
As for `Cc1ccc(-n2nnnc2CNC(=O)c2ccc(F)cc2)cc1C`, the survival was inactive: 106%.
In the case of `COc1ccccc1-c1nn2c(=O)cc(CN3CCN(S(=O)(=O)c4ccc(C)cc4)CC3)nc2s1` it was inactive: 95%; in that of `CCOC(=O)c1ccc(NC(=O)C2Cc3ccccc3C(=O)O2)cc1` (stereo unspecified), inactive: 54%.
For `Clc1cccc(N2CCN(c3ncnc4c3nc3n4CCCC3)CC2)c1` the value was inactive: 114%; for `Brc1ccc(CNCCCSc2nnnn2-c2ccccc2)cc1`, inactive: 69%; for `Cc1cccc(-c2noc(CNC(=O)c3ccco3)n2)c1`, inactive: 83%.
For `COc1ccc(CCNC(=O)c2c(C)oc3nc(C)nc(N4CCOCC4)c23)cc1OC` the value was inactive: 102%; for `Cc1ccc(NC(=O)C2CCCN(S(=O)(=O)c3cccc4cccnc34)C2)c(Br)c1` (stereo unspecified), inactive: 75%; for `N#Cc1c2c(c(Nc3ccc(O)cc3)n3c1nc1ccccc13)CCC2`, inactive: 97%.
For the molecule `Cc1onc(-c2ccccc2Cl)c1C(=O)Oc1ccc(Br)cc1`, the survival is active: 41%.
Consider `Cn1cc(S(=O)(=O)N2CCCCCC2)cc1C(=O)NCc1ccc(Cl)cc1`, for which the survival is inactive: 94%.
In the case of `CC1=C(C(=O)Nc2ccccc2)C(c2cccc(O)c2)n2nc(-c3ccccc3Cl)nc2N1` (stereo unspecified) it was inactive: 74%; in that of `CCN1CCOC(=O)C1CC(=O)Nc1cccc(OC)c1` (stereo unspecified), inactive: 57%.
In the case of `C#CCNc1nc(CC(C)C)nc2c1nnn2Cc1ccccc1` it was inactive: 88%.
In the case of `CCOc1ccccc1C(=O)N1CCN(CCc2ccccn2)CC1` it was active: 67%; in that of `Cc1ccc(C2=Nc3ccccc3N(CC(=O)Nc3ccccc3C)C(=O)C2)cc1C`, inactive: 87%; in that of `Cc1c(Cl)cccc1NC(=O)Cn1nc(C(F)(F)F)c2c1CCC2`, inactive: 73%.
Turning to `Cc1ccc(N2CCn3c2nc2c3c(=O)n(CCCc3ccccc3)c(=O)n2C)cc1`, the survival is inactive: 81%.
For `O=C1CCCCCN1Sc1ccccc1` the value was active: 48%.
For `COc1ccc(OC)c(CNC(=O)c2ccccc2NC(=O)c2nsc3ccccc23)c1` the value was inactive: 92%; for `Cc1cc(C)c(NC(=O)Cn2c(=O)n(CCc3ccccc3)c(=O)c3ccccc32)c(C)c1`, inactive: 108%.
Consider `Cc1cccc(-c2nc(SCC(=O)NCC3CCCO3)c3c(=O)n(C)c(=O)n(C)c3n2)c1` (stereo unspecified), for which the survival is inactive: 120%.
